The target of the experiment is T1, recombinant M1-linked tetra-ubiquitin (UniProt P0CG48 partial chain; P0CG48 partial chain; P0CG48 partial chain; P0CG48 partial chain).
T1 construct: ubiquitin moiety 1 of 4, joined head to tail on one chain (synthetic codon-optimised gene); ubiquitin moiety 2 of 4; ubiquitin moiety 3 of 4; ubiquitin moiety 4 of 4; One polypeptide of four ubiquitin moieties; also called 4×M1-ub; linear tetra-ubiquitin; source: E. coli BL21 (DE3) pLysS, purified (GSTrap, PreScission cleavage, CaptoQ flow-through)
Briefly: other fluorescence titration; steady-state intrinsic fluorescence (excitation 295 nm, emission 333 nm); NEMO fixed at 15 µM or Q330X NEMO at 5 µM, 4×M1-ub varied 0-30 µM (NEMO) or up to 70 µM (Q330X NEMO); 25°C, 10 mM Tris–HCl pH 7.4; fit to an equivalent and independent binding site model. The settings on record: both partners purified.

B1: untagged WT NEMO purified from insect cells (natural protein)
chain: not shown
notes: the printed primers run from codon 2, directly behind the 3C site, to the stop codon after E419; printed mass of the cleaved protein 48,221 D; also called His-MBP-WT NEMO (before cleavage); source: Sf9 insect cells (baculovirus), purified (Ni-NTA, on-column HRV-3C cleavage, size exclusion); not shown: His, N-terminal, cleaved; MBP, N-terminal, cleaved
On to B1, for which the Ka was 5e+06 M⁻¹.

These data come from publication PMC9889916, “Linear ubiquitination induces NEMO phase separation to activate NF-κB signaling” (Life Science Alliance, 2023).
